Laboratory results as given in the supplement of paper PMC4166925.
± gives the standard deviation of the averaged measurements. Over roughly 33,000 sequences, “E-score (dimensionless, -0.5 to 0.5)” has its median near -0.049; the highest 2% begin near 0.37. The list shows a part of the results.

Each sequence was assayed on T1, PmTbr T-box DNA-binding domain (GST fusion) (assay: PBM E-score of 8-mer (E-score (dimensionless, -0.5 to 0.5)); Tbr is Tbrain of the sea star Patiria miniata (Pm) or the sea urchin Strongylocentrotus purpuratus (Sp); higher = stronger binding preference; most listed sequences are background and not binding sites). Settings: the construct has about 5 more residues each side.
T1 sequence: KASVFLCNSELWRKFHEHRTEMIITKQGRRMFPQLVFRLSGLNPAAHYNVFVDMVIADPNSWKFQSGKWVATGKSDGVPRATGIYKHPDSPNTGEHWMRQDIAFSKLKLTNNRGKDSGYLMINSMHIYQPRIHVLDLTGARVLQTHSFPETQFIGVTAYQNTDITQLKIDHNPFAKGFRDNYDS
Outline: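 Universal Agilent oligonucleotide arrays, made double-stranded by primer extension, were incubated with 200 nM GST-fused Tbr T-box DNA-binding domain in PBS (pH 7.5). The protein was expressed in BL21 E. coli at 20 °C and purified by glutathione affinity chromatography. After scanning and quantification, the Universal PBM Analysis Suite assigned an enrichment E-score to each ungapped 8-mer, averaged over duplicate arrays.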

| Sequence | PBM E-score of 8-mer |
| --- | --- |
| GCTCTGAA | -0.202 ± 0.054 |
| ATCCGGGA | -0.172 ± 0.048 |
| ACGGTAAC | 0.0217 ± 0.0084 |
| AAGGTCCC | -0.225 ± 0.012 |
| CAGACCGA | -0.283 ± 0.012 |
| CTTGATCA | 0.049 ± 0.0072 |
| ACGAATCT | 0.0521 ± 0.069 |
| GCCACAAA | 0.0605 ± 0.0025 |
| CGATTCAA | -0.0063 ± 0.026 |
| ATCACACC | 0.4877 ± 0.0026 |
| CATGTGGA | -0.0456 ± 0.085 |
| GGGCTCAC | 0.0294 ± 0.044 |
| AGACGAAC | -0.12 ± 0.011 |
| ACCAGGTC | -0.101 ± 0.039 |
| CTCTACAC | 0.0228 ± 0.05 |
| CAGGACAA | -0.0885 ± 0.013 |
| GAAAATCA | -0.059 ± 0.068 |
| CCGTACGA | -0.137 ± 0.058 |
| CCGGCCGC | -0.155 ± 0.027 |
| AGTCATGC | -0.221 ± 0.03 |
| CCCACGTA | 0.0492 ± 0.04 |
| CTTCACCA | 0.0251 ± 0.00097 |
| AGGAAATA | 0.1 ± 0.069 |
| ACACTCAG | 0.234 ± 0.017 |
| AATTGTAT | -0.0967 ± 0.012 |

| Sequence | PBM E-score of 8-mer |
| --- | --- |
| ATTTTGGA | -0.228 ± 0.05 |
| CACTTCCC | 0.3321 ± 0.00048 |
| ACAGTGTC | 0.238 ± 0.0038 |
| TGTCAAAA | 0.287 ± 0.056 |
| CTGAAATC | -0.143 ± 0.02 |
| CTCTAGGA | -0.311 ± 0.059 |
| AAAAAAGG | -0.0703 ± 0.013 |
| AGGAATCA | -0.0111 ± 0.062 |
| AGCCCTGA | -0.145 ± 0.054 |
| ACTGAATC | -0.285 ± 0.013 |
| GAGTCGTA | -0.00102 ± 0.018 |
| GGCCCGTA | -0.237 ± 0.082 |
| AATTCTAT | -0.13 ± 0.031 |
| CCTTTGCG | -0.0829 ± 0.011 |
| GTTGTGTA | -0.0353 ± 0.064 |
| CAAGAAAG | -0.23 ± 0.064 |
| CCACCCCC | 0.00912 ± 0.024 |
| CTTGTATA | -0.0775 ± 0.0045 |
| CCAATCAC | 0.181 ± 0.046 |
| TCTAACAA | 0.118 ± 0.035 |
| TCCCGGCA | -0.0694 ± 0.0015 |
| AGGAACCA | -0.14 ± 0.15 |
| AGTACTGC | -0.06064 ± 0.00031 |
| ATGTGCTG | 0.1768 ± 0.001 |
| GTCTGTGA | 0.0211 ± 0.036 |

| Sequence | PBM E-score of 8-mer |
| --- | --- |
| ACACGGCT | 0.131 ± 0.061 |
| ATACCAAC | 0.128 ± 0.028 |
| AATTGCTG | -0.0855 ± 0.015 |
| GCCATGAA | -0.108 ± 0.039 |
| CATACGCG | 0.0461 ± 0.029 |
| CCCTTGCA | 0.0511 ± 0.049 |
| GGAGACGA | -0.201 ± 0.0054 |
| GTCAGACA | -0.1 ± 0.0071 |
| ATGCGGCC | -0.113 ± 0.1 |
| CGGCCACC | -0.0449 ± 0.038 |
| TAACCCCA | -0.215 ± 0.026 |
| GCATCGAC | 0.0377 ± 0.0069 |
| CCAATGAC | 0.0413 ± 0.041 |
| CCAGGCGA | 0.0665 ± 0.017 |
| ATCAGCTG | -0.0117 ± 0.0022 |
| GATCGTTA | 0.0692 ± 0.034 |
| TCCTAAAA | -0.216 ± 0.029 |
| CACCAGAA | 0.211 ± 0.005 |
| AGGACACA | 0.0438 ± 0.012 |
| GATGACGA | 0.0952 ± 0.014 |
| CTTCCGAA | -0.127 ± 0.0066 |
| CATTCCAA | -0.184 ± 0.021 |
| CGCCAGAA | 0.0252 ± 0.02 |
| CTAGAAGA | -0.198 ± 0.085 |
| AAGCTCCA | -0.2848 ± 0.00034 |

| Sequence | PBM E-score of 8-mer |
| --- | --- |
| ACCGGCCC | -0.265 ± 0.0091 |
| TTAGGAAA | -0.208 ± 0.04 |
| CGGGTATC | -0.127 ± 0.032 |
| GCGGTCGA | 0.082 ± 0.038 |
| TGGGGCAA | -0.138 ± 0.041 |
| AGGAATAC | -0.278 ± 0.082 |
| CATAAAGC | -0.206 ± 0.057 |
| ATACACAG | -0.0706 ± 0.021 |
| GGGTTATA | -0.0445 ± 0.021 |
| ATATTTAG | -0.0478 ± 0.012 |
| GATCCGGA | -0.0726 ± 0.05 |
| AATTTCGC | 0.3262 ± 0.0031 |
| ATACGGCG | -0.0155 ± 0.015 |
| ATAGCATC | 0.0443 ± 0.049 |
| ATAAACAA | -0.0987 ± 0.12 |
| AGTTTGTG | 0.0706 ± 0.0084 |
| CTCATGAA | -0.0984 ± 0.015 |
| CAGGGGCA | -0.36 ± 0.043 |
| CTCCTTCA | -0.164 ± 0.033 |
| AGGGATAT | -0.238 ± 0.052 |
| GTCAAACA | -0.0272 ± 0.074 |
| CCCATGGC | -0.121 ± 0.0038 |
| AATTTGCA | 0.11 ± 0.08 |
| GCGTAACA | 0.116 ± 0.016 |
| CCGTATCC | -0.134 ± 0.028 |

| Sequence | PBM E-score of 8-mer |
| --- | --- |
| CATGTGCC | 0.126 ± 0.062 |
| ATCCACGG | -0.244 ± 0.0051 |
| GTCCCGTA | -0.34 ± 0.065 |
| CACACTAC | 0.323 ± 0.014 |
| AATTTAAC | 0.0896 ± 0.053 |
| GTAGCATA | -0.016 ± 0.0069 |
| TTAAAAAA | -0.117 ± 0.0036 |
| GTAAGGAA | -0.0321 ± 0.098 |
| CGAGCGAG | 0.00852 ± 0.057 |
| CGTAATAC | -0.208 ± 0.025 |
| CCGCTGGA | -0.12 ± 0.038 |
| ACCCCGTG | 0.157 ± 0.055 |
| ATTATTCG | -0.0471 ± 0.044 |
| CTAATAAG | -0.0081 ± 0.031 |
| ACCTGCAT | 0.0692 ± 0.0092 |
| ATCCTCAT | -0.181 ± 0.048 |
| AGGCAGTC | -0.183 ± 0.031 |
| GGTCCGCA | -0.0241 ± 0.056 |
| CCTTCTCC | -0.0679 ± 0.015 |
| CCAACGTC | -0.107 ± 0.0055 |
| CGACACGA | 0.183 ± 0.071 |
| AACGAAGC | -0.154 ± 0.017 |
| CTCAATTA | -0.0829 ± 0.032 |
| ACTAGCAT | 0.152 ± 0.039 |
| ACATATTC | 0.24 ± 0.028 |

| Sequence | PBM E-score of 8-mer |
| --- | --- |
| CAGACGGA | -0.0715 ± 0.02 |
| AAACCTGT | 0.0415 ± 0.013 |
| AAGGCATG | -0.218 ± 0.093 |
| AGGCGTAA | 0.215 ± 0.017 |
| CGCATACC | -0.202 ± 0.0048 |
| AAAGTTTC | -0.0531 ± 0.055 |
| GAGTCGCA | 0.237 ± 0.0028 |
| CAGGTGAG | 0.422 ± 0.007 |
| GGCAATGA | -0.0785 ± 0.12 |
| CTGACTTC | -0.0913 ± 0.025 |
| GGCCCCAC | 0.0114 ± 0.074 |
| CACGCTGG | 0.0207 ± 0.026 |
| CAAGTACA | 0.0375 ± 0.041 |
| CATCAGGG | -0.024 ± 0.045 |
| AGCAACCG | -0.0515 ± 0.037 |
| AATCGGCC | -0.189 ± 0.027 |
| CCGATCCA | -0.117 ± 0.03 |
| AACGGGCT | -0.184 ± 0.071 |
| GGTGATTA | 0.193 ± 0.065 |
| ACCCTCCA | 0.0539 ± 0.02 |
| AACTTGCG | 0.137 ± 0.02 |
| ATCAGACA | -0.122 ± 0.09 |
| CTAGTTAC | -0.0386 ± 0.035 |
| GTACATTA | -0.228 ± 0.017 |
| AAGGATTA | -0.163 ± 0.041 |

| Sequence | PBM E-score of 8-mer |
| --- | --- |
| AGGTTGAC | 0.179 ± 0.021 |
| AGAGATTA | -0.207 ± 0.0077 |
| ACCCGACG | 0.19 ± 0.0099 |
| ACTAACCA | 0.0293 ± 0.14 |
| GCGCCTAA | 0.144 ± 0.0023 |
| CATAGGAG | -0.0925 ± 0.037 |
| CACCGAAA | -0.136 ± 0.0079 |
| CTCACAGC | 0.32 ± 0.026 |
| ACCAATTG | -0.137 ± 0.0072 |
| ATCTGCGG | -0.102 ± 0.0068 |
| AGAACCGG | -0.197 ± 0.043 |
| ACGCCTCC | 0.348 ± 0.017 |
| ATCCCCAG | -0.138 ± 0.097 |
| AAATCCTA | -0.272 ± 0.029 |
| ACTGAAGA | -0.088 ± 0.078 |
| AGGGGGAG | -0.216 ± 0.021 |
| AGCCGTTG | -0.0838 ± 0.0032 |
| CCGTTGCC | 0.0157 ± 0.0058 |
| CCCGGCGC | 0.0568 ± 0.086 |
| ATCTGAAT | -0.103 ± 0.0079 |
| ACAGGGAG | -0.0135 ± 0.0075 |
| GGCTGTCA | 0.237 ± 0.024 |
